Measured values taken from patent US20250019442A1 (LANOVA MEDICINES, published 2025).

B1: B12D1-6 (bispecific antibody, human IgG1, kappa)
heavy: EVQLVESGGGLVQPGGSLRLSCAASGYTFTNYGMNWVRQAPGKGLEWVGWINTYTGEPTYAADFKRRFTFSLDTSKSTAYLQMNSLRAEDTAVYYCAKYPHYYGSSHWYFDVWGQGTLVTVSS[left out - human IgG1 constant region with changes]GGGGSGGGGSGGGGSGGGGSEVQLVESGGGLVQPGGSLRLSCAVSGNIYNRNFMGWFRQAPGKGREGVSAIYTGTSRTYYADSVKGRFTISRDNAKNTVYLQMNSLRPEDTAVYYCAADLRDGFWDTGVWNTWGQGTLVTVSSGGGGSGGGGSGGGGSGGGGSEVQLVESGGGLVQPGGSLRLSCAVSGNIYNRNFMGWFRQAPGKGREGVSAIYTGTSRTYYADSVKGRFTISRDNAKNTVYLQMNSLRPEDTAVYYCAADLRDGFWDTGVWNTWGQGTLVTVSS
light: DIQMTQSPSSLSASVGDRVTITCSASQDISNYLNWYQQKPGKAPKVLIYFTSSLHSGVPSRFSGSGSGTDFTLTISSLQPEDFATYYCQQYSTVPWTFGQGTKVEIKRTVAAPSVFIFPPSDEQLKSGTASVVCLLNNFYPREAKVQWKVDNALQSGNSQESVTEQDSKDSTYSLSSTLTLSKADYEKHKVYACEVTHQGLSSPVTKSFNRGEC
notes: Full-length IgG-VHH fusion; 4 anti-PD-1 VHH (VH18) per molecule; produced transiently in CHO-K1 cells; also called anti-PD1-VEGF bispecific antibody B12D1-6
B2: B12D1-9 (bispecific antibody, human IgG1, kappa)
heavy: EVQLVESGGGLVQPGGSLRLSCAASGYTFTNYGMNWVRQAPGKGLEWVGWINTYTGEPTYAADFKRRFTFSLDTSKSTAYLQMNSLRAEDTAVYYCAKYPHYYGSSHWYFDVWGQGTLVTVSSASTKGPSVFPLAPSSKSTSGGTAALGCLVKDYFPEPVTVSWNSGALTSGVHTFPAVLQSSGLYSLSSVVTVPSSSLGTQTYICNVNHKPSNTKVDKKV[left out - human IgG1 Fc with changes]GGGGSGGGGSGGGGSGGGGSEVQLVESGGGLVQPGGSLRLSCAVSGNIYNRNFMGWFRQAPGKGREGVSAIYTGTSRTYYADSVKGRFTISRDNAKNTVYLQMNSLRPEDTAVYYCAADLRDGFWDTGVWNTWGQGTLVTVSS
light: B1 light
notes: Full-length IgG-VHH fusion; 2 anti-PD-1 VHH (VH18) per molecule; also called anti-PD-1-VEGF bi-specific antibody B12D1-9
B3: B12D1-10 (bispecific antibody, human IgG1, kappa)
heavy: EVQLVESGGGLVQPGGSLRLSCAASGYTFTNYGMNWVRQAPGKGLEWVGWINTYTGEPTYAADFKRRFTFSLDTSKSTAYLQMNSLRAEDTAVYYCAKYPHYYGSSHWYFDVWGQGTLVTVSSASTKGPSVFPLAPSSKSTSGGTAALGCLVKDYFPEPVTVSWNSGALTSGVHTFPAVLQSSGLYSLSSVVTVPSSSLGTQTYICNVNHKPSNTKVDKKV[left out - human IgG1 Fc with changes]GGGGSGGGGSGGGGSGGGGSEVQLVESGGGLVQPGGSLRLSCAVSGNIYNRNFMGWFRQAPGKGLEGVSAIYTGTSRTYYADSVKGRFTISRDNSKNTVYLQMNSLRAEDTAVYYCAADLREGFWDTGVWNTWGQGTLVTVSS
light: B1 light
notes: Full-length IgG-VHH fusion; 2 anti-PD-1 VHH (VH8M1) per molecule; also called anti-PD1-VEGF bispecific antibody B12D1-10

Tests used:
[1] = biological target: T1, human PD-1 overexpressed on cells (human, UniProt Q15116 25-288); assay: flow cytometry on CHO-K1 cells overexpressing human PD-1, PE secondary antibody
T1 construct: whole, on cells; also called CHO-K1 cells overexpressing human PD-1; Jurkat-PD1 cells
Procedure: (§1) To further determine PD-1 binding activity of the bispecific antibodies, CHO-K1 cells overexpressing human PD-1 were incubated with different concentrations of anti-PD1-VEGF bispecific antibodies and reference antibodies at 4° C. for 30 minutes. Then, the cells were washed twice with FACS buffer and stained with PE conjugated secondary antibody at 4° C. for 30 minutes. After wash twice with FACS buffer, MFI of PE was analyzed by a NovoCyte flow cytometer.

[2] = biological target: T2, human PD1 (human, UniProt Q15116 in part, limits assumed); assay: ELISA, human PD1 coated, anti-human IgG-HRP detection
T2 construct: Recombinant protein for ELISA; also called human PD1 protein
Procedure: (§2) To evaluate PD1 binding activity of the test bispecific antibodies, human PD1 and cynomolgus PD1 diluted in PBS were coated on a microplate respectively at 4° C. overnight. Three-fold dilution of test antibodies starting from 100 nM were added to each well and incubated for 1 hours at 25° C. Then, the plates were washed with ELISA washing buffer (1×DPBS with 0.5% Tween-20) and incubated with peroxidase conjugated anti-human IgG secondary antibody for 60 minutes at 25° C. After washed four times with ELISA washing buffer, the plates were detected by TMB-ELISA substrate solution, then stopped by ELISA stopping solution and analyzed by microplate reader at OD450 nm.

[3] = biological target: T3, human VEGF protein (human, UniProt P15692-4 27-191, limits assumed); assay: ELISA, human VEGF coated at 0.5 ug/ml, anti-human IgG-HRP detection
T3 construct: also called soluble VEGF
T3 sequence (looked up): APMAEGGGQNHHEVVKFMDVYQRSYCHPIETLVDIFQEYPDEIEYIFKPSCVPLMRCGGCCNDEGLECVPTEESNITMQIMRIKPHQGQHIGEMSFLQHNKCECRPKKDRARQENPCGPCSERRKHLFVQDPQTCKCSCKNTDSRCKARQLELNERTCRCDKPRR

[4] = biological target: T1, human PD-1 overexpressed on cells; assay: cell-based or functional assay
[5] = biological target: T1, human PD-1 overexpressed on cells; assay: flow cytometry on CHO-K1 cells overexpressing human PD-1; column headed OD450 but the text says MFI of PE; parameters: unit not given here
Procedure: as §1

[6] = biological target: T3, human VEGF protein; assay: cell-based or functional assay
[7] = biological target: T4, cynomolgus PD1 (cynomolgus, UniProt B0LAJ3 25-170); assay: ELISA, cynomolgus PD1 coated, anti-human IgG-HRP detection
T4 construct: Recombinant protein for ELISA; also called cynomolgus PD1 protein
Procedure: as §2

[8] = biological target: T3, human VEGF protein; assay: cell-based or functional assay; remark: listed apart in the source

cynomolgus PD1, sequence (B0LAJ3 entry or part of it limits assumed, form in doubt): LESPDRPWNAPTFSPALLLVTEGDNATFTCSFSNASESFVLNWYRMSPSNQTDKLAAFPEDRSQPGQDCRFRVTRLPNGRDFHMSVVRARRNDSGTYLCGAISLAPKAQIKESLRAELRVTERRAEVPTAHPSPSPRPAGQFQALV
T1 sequence (Q15116 25-288): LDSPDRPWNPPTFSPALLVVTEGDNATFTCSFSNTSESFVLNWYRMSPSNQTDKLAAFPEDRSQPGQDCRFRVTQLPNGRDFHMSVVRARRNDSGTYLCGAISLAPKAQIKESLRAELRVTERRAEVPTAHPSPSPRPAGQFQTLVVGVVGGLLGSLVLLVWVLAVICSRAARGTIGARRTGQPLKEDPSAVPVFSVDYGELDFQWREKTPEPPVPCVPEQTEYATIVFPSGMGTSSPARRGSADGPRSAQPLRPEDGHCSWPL
human PD1, sequence (Q15116 25-167 limits assumed): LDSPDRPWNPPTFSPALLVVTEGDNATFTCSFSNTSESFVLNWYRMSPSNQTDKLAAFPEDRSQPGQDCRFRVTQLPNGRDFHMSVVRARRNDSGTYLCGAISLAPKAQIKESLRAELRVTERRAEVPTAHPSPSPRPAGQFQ

| Binder | EC50 [1] [pM] | EC50 [2] [pM] | Top (OD450) [2] [OD450] | EC50 [3] [pM] | Top (OD450) [3] [OD450] | EC50 (nM), PD1 blocking activity (PD1 reporter gene assay) [4] [nM] | Top (RLU), PD1 blocking activity (PD1 reporter gene assay) [4] [RLU] | Top (OD450) [5] | EC50 (nM), VEGF Reporter Gene Assay [6] [nM] | Top (RLU), VEGF Reporter Gene Assay [6] [RLU] | EC50 [7] [pM] | Top (OD450) [7] [OD450] | IC50 (nM), Inhibition of VEGF-Induced Cell Proliferation (HUVEC) [8] [nM] |
| --- | --- | --- | --- | --- | --- | --- | --- | --- | --- | --- | --- | --- | --- |
| B1 | 1360 | 78 | 1.59 | 68 | 2.2 | 7.84 | 207000 | 625000 | 0.344 | 23500 | 394 | 1.3 | – |
| B2 | 3950 | 169 | 1.63 | 114 | 2.16 | 37.9 | 141000 | 617000 | 0.493 | 23800 | 958 | 1.3 | 0.907 |
| B3 | 2300 | – | – | 134 | 2.22 | 5.09 | – | 296000 | 0.567 | 24400 | – | – | – |
